# According to PubChem BioAssay AID463173 (ICCB-Longwood Screening Facility, Harvard Medical School, 2010):
# Out of some 52,000 compounds screened, about 4,300 (8.3%) were called active. No stated cut-off is given here; in the data, active means survival mostly below about 52% (no sharp cut-off); inactive means mostly above about 56%. The list shows a part of the results.
# Tested on: DeltatarO mutant
# Experiment: growth inhibition of S. aureus wild type versus tarO mutant, primary screen, teichoic acid synthesis inhibitors, RN4220, OD600 (AID 463173)
# Conditions: OD600, 18 h, hits give low values, screened at 18.75 µg/mL (by protocol)
row,SMILES,survival
1,CCCCOC(=O)c1ccc(NC(=O)/C(C#N)=C/c2ccc(C)o2)cc1,active: 49%
2,CCCCNS(=O)(=O)c1ccc2nc(-c3cccnc3)cc(C(=O)NCCCOCC)c2c1,inactive: 79%
3,Cc1ccc(NC(=O)COCc2cc(-c3cccs3)on2)cc1Cl,inactive: 57%
4,O=C1COc2ccc(-c3cc(-c4ccc(F)cc4)c4c(n3)-c3ccccc3OC4)cc2N1,inactive: 105%
5,CCc1nc(SCc2ccccc2)[nH]c(=O)c1C,inactive: 93%
6,CCN(C(=O)c1ccc2c(=O)n3c(nc2c1)CCCCC3)c1cc(C)ccc1C,inactive: 89%
7,CSc1nn(Cc2ccc(F)cc2)c(N)c1S(=O)(=O)c1ccc(Cl)cc1,inactive: 101%
8,COc1cc(C2/C(=C(\O)c3ccccc3)C(=O)C(=O)N2CCC(=O)O)ccc1O (configuration not stated),inactive: 56%
9,COc1cccc(CSc2nc(-c3ccccc3OC)nc3c2Cc2c(CO)cnc(C)c2O3)c1,inactive: 57%
10,CCCN(CCC)CCCNC(=O)C1CCN(S(=O)(=O)c2cccc3nsnc23)CC1,inactive: 96%
11,CCOc1ccc(S(=O)(=O)N2CCN(c3ccc(C)cc3C)CC2)c2ccccc12,inactive: 57%
12,CC(C)CCNC(=O)c1ccc2c(c1)N(C)C(=O)c1ccccc1S2,active: -5%
13,CC1CCN(S(=O)(=O)c2cn(CC(=O)Nc3ccc(F)cc3)c(=O)c3ccccc23)CC1,inactive: 70%
14,COc1ccc(N2CCN(Cc3nc(-c4ccc(C)cc4)no3)CC2)cc1,inactive: 48%
15,CCOc1cc2[nH]c(=O)n(CCCCCC(=O)NC(C)CC)c(=O)c2cc1OCC (configuration not stated),inactive: 80%
16,CSc1cccc(NC(=O)CN(C)S(=O)(=O)c2ccc3c(c2)CCCN3C(C)=O)c1,inactive: 101%
17,CCCOc1cccc(C2c3c(oc4cc(C)c(C)cc4c3=O)C(=O)N2CCCN2CCOCC2)c1 (configuration not stated),inactive: 64%
18,CCC(=O)N1CCc2cc(S(=O)(=O)NC(C(=O)NCCc3ccc(C)cc3)C(C)C)ccc21 (configuration not stated),inactive: 86%
19,COCc1cc(C)n(CC(=O)Nc2cccc(C(C)=O)c2)c(=O)c1C#N,inactive: 69%

row,SMILES,survival
1,Cc1ccc(C)c(C(=O)CSc2nc3cc(C(=O)NC4CCCC4)ccc3c(=O)n2CC2CCCO2)c1 (configuration not stated),inactive: 89%
2,CCOc1ccccc1C(=O)N1CCCCC1CCN1CCOCC1 (configuration not stated),inactive: 87%
3,Cc1ccc(-c2nc3cc(NC(=O)c4cc(Br)ccc4Cl)ccc3o2)cc1,inactive: 65%
4,Cc1ccc(-n2nc3c(N4CCC(C(=O)NCCC(C)C)CC4)nnc(C)c3c2C)cc1,inactive: 98%
5,CC(C)c1ccc(S(=O)(=O)c2cnc(SCC(=O)Nc3ccc(F)cc3F)nc2N)cc1,inactive: 94%
6,Cc1ccc2oc(=O)c3cc(C(=O)Nc4cccc(C#N)c4)sc3c2c1,inactive: 67%
7,Cc1ccccc1-c1nnc(SCC(=O)N2CCCc3ccccc32)n1C,inactive: 100%
8,Cc1cc(C)cc(-n2ccnc2SCC(=O)Nc2ccc(C)c(Cl)c2)c1,inactive: 55%
9,CCC(=O)N1c2ccccc2CC1C(=O)NCCc1ccc(Cl)cc1 (configuration not stated),inactive: 124%
10,COc1ccc(C2(NC(=O)c3ccc(Cn4cc(Cl)cn4)o3)CCCCC2)cc1,inactive: 102%
11,O=C(Cn1nnnc1-c1ccccc1F)Nc1ccc(F)c(F)c1,inactive: 77%
12,COc1ccc(NC(=O)c2[nH]nc3c2CSc2ccccc2-3)c(OC)c1,inactive: 49%
13,CCOc1ccccc1NC(=O)c1nnn(CC(=O)Nc2ccccc2CC)c1N,inactive: 84%
14,O=C(Nc1cnn(C23CC4CC(CC(C4)C2)C3)c1)c1cc(-c2ccccc2)on1,inactive: 101%
15,O=C(O)CCn1ccc2cc(S(=O)(=O)N3CCCCC3)ccc21,inactive: 117%
16,COc1ccc(Cl)cc1NC(=O)CCCS(=O)(=O)c1nc(-c2ccc(OC)c(OC)c2)cc(C(F)(F)F)n1,inactive: 62%
17,CCn1cc2nc(SCc3cccc(F)c3)n(CCc3ccccc3)c(=O)c2n1,inactive: 71%
18,CCC(Cc1ccccc1)NC(=O)Cn1ncc2c3ccccc3n(Cc3ccc(F)cc3)c2c1=O (configuration not stated),inactive: 107%
19,O=C(NCc1ccccc1Cl)C1CCN(c2ncnc3c2nc2n3CCCCC2)CC1,inactive: 71%

row,SMILES,survival
1,Cc1nnc(NC(=O)CSCc2cc(=O)c3ccc(C)c(C)c3[nH]2)s1,inactive: 73%
2,Cc1cc(C)n2c(Nc3cccc(C(F)(F)F)c3)c(-c3ccsc3)nc2n1,inactive: 78%
3,COc1ccc(OC)c2sc(N(CCCN(C)C)C(=O)c3ccco3)nc12,inactive: 126%
4,COc1ccc(C2CC(=O)Oc3c2c(=O)n(C)c2ccccc32)c(OC)c1OC (configuration not stated),inactive: 56%
5,O=C(COc1ccccc1)Nc1ccc2nc(SCC(=O)N3CCCC3)sc2c1,inactive: 68%
6,CC(=O)Nc1sc2c(c1C(N)=O)CCCC2,inactive: 80%
7,Fc1ccc(N2CCN(c3ncnc4c3nc3n4CCCC3)CC2)cc1,inactive: 141%
8,CCOc1ccc(NC(=O)CS(=O)(=O)Cc2nc(-c3ccc(C)cc3)oc2C)cc1,inactive: 84%
9,O=c1nc(N(c2ccccc2)c2ccccc2)[nH]c(=O)[nH]1,inactive: 113%
10,CCSc1nnc(CNc2ccc(F)cc2)n1CC1CCCO1 (configuration not stated),inactive: 91%
11,CCOC(=O)c1ccc(NC(=O)c2ccc(-c3cccc(Cl)c3C)o2)cc1,active: 37%
12,CCOc1ccc(CCNC(=O)c2cc3c(-c4ccccc4F)nn(C)c3s2)cc1OCC,inactive: 67%
13,COc1ccc(C2c3c(-c4ccc(F)cc4)n[nH]c3C(=O)N2c2ccccc2)cc1OC (configuration not stated),inactive: 124%
14,Cc1ccccc1CNC(=O)CCSCc1cnn(-c2ccccc2)c1-n1cccc1,inactive: 64%
15,O=c1c2oc3ccccc3c2ncn1Cc1ccc(Br)cc1,inactive: 107%
16,COc1ccc(C2c3c(oc4ccccc4c3=O)C(=O)N2c2nc(C)c(C)s2)cc1 (configuration not stated),inactive: 58%
17,CCC(=O)N1c2ccc(S(=O)(=O)N3CCCCCC3)cc2CC1C (configuration not stated),inactive: 69%
18,CCC(Sc1nc2cc3c(cc2c(=O)n1CCCC(=O)NCc1ccc2c(c1)OCO2)OCO3)C(=O)NCCCOC (configuration not stated),inactive: 76%
19,Cc1ccc(NC(=O)COc2ccc(-c3nn(C)c(=O)c4ccccc34)cc2)c(C)c1,inactive: 73%
